{
  "source": "paper PMC4336329",
  "about": "(PLoS ONE, 2015)",
  "note": "The campaign covered roughly 310,000 compounds. About 2,200 (0.71%) showed an effect of 50% or more. Effects have a minus sign here. The list shows a part of the results.",
  "data": [
    {"molecular_target": "human ether-à-go-go-related gene (hERG) potassium channel (human, UniProt Q12809)", "sequence (Q12809 whole entry, looked up)": "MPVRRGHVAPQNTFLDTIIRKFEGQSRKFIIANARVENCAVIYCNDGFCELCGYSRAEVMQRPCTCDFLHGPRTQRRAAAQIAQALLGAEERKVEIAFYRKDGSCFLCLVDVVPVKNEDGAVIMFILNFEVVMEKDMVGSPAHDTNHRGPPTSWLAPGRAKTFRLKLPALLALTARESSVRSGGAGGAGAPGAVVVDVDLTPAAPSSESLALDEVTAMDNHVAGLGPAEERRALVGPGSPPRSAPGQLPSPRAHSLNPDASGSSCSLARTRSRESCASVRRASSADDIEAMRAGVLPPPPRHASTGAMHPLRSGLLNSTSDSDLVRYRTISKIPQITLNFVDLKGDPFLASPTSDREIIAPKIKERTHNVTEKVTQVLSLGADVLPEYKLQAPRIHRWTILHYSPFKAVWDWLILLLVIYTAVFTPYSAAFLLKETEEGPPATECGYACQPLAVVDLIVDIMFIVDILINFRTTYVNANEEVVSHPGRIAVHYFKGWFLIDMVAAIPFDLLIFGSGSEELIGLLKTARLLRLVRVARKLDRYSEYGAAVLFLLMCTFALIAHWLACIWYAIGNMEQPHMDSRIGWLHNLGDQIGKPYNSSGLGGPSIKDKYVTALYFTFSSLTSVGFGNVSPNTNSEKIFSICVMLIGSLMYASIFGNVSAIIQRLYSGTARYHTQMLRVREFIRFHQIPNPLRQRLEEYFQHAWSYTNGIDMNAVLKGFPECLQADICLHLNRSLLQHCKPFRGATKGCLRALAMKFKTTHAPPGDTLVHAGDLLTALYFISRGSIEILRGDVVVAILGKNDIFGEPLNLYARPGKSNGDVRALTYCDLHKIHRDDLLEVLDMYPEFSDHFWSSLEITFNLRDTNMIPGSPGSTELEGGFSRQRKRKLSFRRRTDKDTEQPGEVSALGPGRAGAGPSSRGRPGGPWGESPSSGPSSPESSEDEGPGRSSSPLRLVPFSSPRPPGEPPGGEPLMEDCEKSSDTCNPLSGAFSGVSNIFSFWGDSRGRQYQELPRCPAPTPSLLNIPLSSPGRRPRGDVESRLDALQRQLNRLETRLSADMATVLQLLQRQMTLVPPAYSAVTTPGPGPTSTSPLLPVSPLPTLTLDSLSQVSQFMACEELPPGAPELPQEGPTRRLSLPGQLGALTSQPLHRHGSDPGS", "test": "primary screen, population patch clamp on CHO cells stably expressing hERG", "units": {"hERG current change (%, negative = inhibition) at 1uM": "%"}, "values": [
      {"smiles": "COCCNC(=O)CN(C(=O)Cn1nnc2ccccc21)c1ccc(C)cc1", "hERG current change (%, negative = inhibition) at 1uM": 25.2},
      {"smiles": "Cl.O=C(CCc1ccccc1)N1CCN(CCO)CC1", "hERG current change (%, negative = inhibition) at 1uM": 9.43},
      {"smiles": "CC1(C)c2cc(O)ccc2OC1N1CCOCC1", "note": "(centres unmarked)", "hERG current change (%, negative = inhibition) at 1uM": 8.74},
      {"smiles": "O=C(CSc1nc2[nH]ncc2c(=O)[nH]1)Nc1nccs1", "hERG current change (%, negative = inhibition) at 1uM": 6.1},
      {"smiles": "COc1ccc(C(=O)N/N=C\\c2coc3ccc(C)cc3c2=O)cc1", "hERG current change (%, negative = inhibition) at 1uM": 9.26},
      {"smiles": "CCOC(=O)C1(CCOC)CCN(Cc2ccc(C(=O)OC)cc2)CC1", "hERG current change (%, negative = inhibition) at 1uM": 0.201},
      {"smiles": "Fc1ccc2nc(Nc3nc4c(s3)CCCC4)sc2c1", "hERG current change (%, negative = inhibition) at 1uM": 5.91},
      {"smiles": "Cc1ccccc1[C@@H](NC(=O)OC(C)(C)C)C(=O)OC(C)(C)C", "hERG current change (%, negative = inhibition) at 1uM": 8.98},
      {"smiles": "O=C(NCc1ccco1)C1CCCCN1S(=O)(=O)c1ccc(F)cc1", "note": "(centres unmarked)", "hERG current change (%, negative = inhibition) at 1uM": 10.4},
      {"smiles": "N#CC1=C(N)Oc2c(c(=O)sc3ccccc23)C1c1cccnc1", "note": "(centres unmarked)", "hERG current change (%, negative = inhibition) at 1uM": 10.4},
      {"smiles": "O=C(COc1ccc2ccc(=O)oc2c1)NCCc1c[nH]c2ccc(F)cc12", "hERG current change (%, negative = inhibition) at 1uM": 12.5},
      {"smiles": "CN1CCN(CCc2nc3cc(NC(=O)COc4ccccc4)ccc3n2C)CC1", "hERG current change (%, negative = inhibition) at 1uM": -13.2},
      {"smiles": "Cc1[nH]c(C)c(S(=O)(=O)N2CCN(c3ccccc3)CC2)c1C(=O)N1CCCCC1", "hERG current change (%, negative = inhibition) at 1uM": -5.2},
      {"smiles": "CC1CCN(C(=O)COC(=O)CSc2ccc(C(N)=O)cc2[N+](=O)[O-])CC1", "hERG current change (%, negative = inhibition) at 1uM": 10.2},
      {"smiles": "COc1ccc(CCNS(=O)(=O)c2ccc(Br)cc2)cc1OC", "hERG current change (%, negative = inhibition) at 1uM": 10.5},
      {"smiles": "COc1ccc(NC(=S)N(CCN2CCOCC2)Cc2ccccc2F)cc1", "hERG current change (%, negative = inhibition) at 1uM": 4.38},
      {"smiles": "Cc1cccc(NC(=O)CNC(=O)c2ccco2)n1", "hERG current change (%, negative = inhibition) at 1uM": 7.79},
      {"smiles": "Cc1cc(OCC(=O)N2CCOCC2)ccc1NC(=O)C1CCCCC1", "hERG current change (%, negative = inhibition) at 1uM": 10.4},
      {"smiles": "COCCn1c(C)cc(C(=O)CN2CCCCC2)c1C.O=C(O)C(=O)O", "hERG current change (%, negative = inhibition) at 1uM": 19.3},
      {"smiles": "Cc1cc(C)c(COCc2cc(/C=N/O)c(C)cc2C)cc1/C=N/O", "hERG current change (%, negative = inhibition) at 1uM": 5.04},
      {"smiles": "Cc1ccc(-c2nc3ccsc3c(=O)[nH]2)cc1", "hERG current change (%, negative = inhibition) at 1uM": 18.1},
      {"smiles": "c1csc(-c2nnc(NC3CCCCC3)c3ccccc23)c1", "hERG current change (%, negative = inhibition) at 1uM": -40.8},
      {"smiles": "CCC(=O)Nc1ccc(C(=O)NNC(=O)c2cccs2)cc1", "hERG current change (%, negative = inhibition) at 1uM": -2.98},
      {"smiles": "O=C(Nc1cccnc1)c1ccc([N+](=O)[O-])cc1Cl", "hERG current change (%, negative = inhibition) at 1uM": 3.79},
      {"smiles": "CCOC(=O)Cn1c(=N)n(Cc2ccccc2F)c2ccccc21.Cl", "hERG current change (%, negative = inhibition) at 1uM": 4.5},
      {"smiles": "Cc1ccc(S(=O)(=O)N2CCCC2CNC(=O)C(=O)NC2CC2)cc1", "note": "(centres unmarked)", "hERG current change (%, negative = inhibition) at 1uM": 14.6}
    ]}
  ]
}
